Data from PubChem BioAssay AID504444 (National Center for Advancing Translational Sciences (NCATS), 2011).
Values joined by “and” are separate entries in the source; they are usually repeats but may differ in a detail not shown here. Identical values can stand only once. The whole screen tested about 360,000 compounds, of which about 7,500 (2.1%) were called active. About 20% were inconclusive and are not listed. Calls follow the shape of the dose curve; as a rule, active = well fitted inhibition curve with a large enough effect; inconclusive = small, poorly fitted or top-dose-only effect, or effect the other way; inactive = flat fitted curve, though single readings scatter. The entries are a selection whose mix differs from that of the whole data set. The source holds several records for some structures; these can differ, active in one and inactive in another.

test: Nrf2 qHTS screen for inhibitors; settings: A549 ARE-Fluc reporter, luciferase luminescence, 18-24 h; series mostly up to 46 µM; activity change, negative = inhibition: at the top concentration; also: nearly all actives have a fitted effect of over 60% in size
In short: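 Quantitative HTS in A549 cells stably bearing an antioxidant response element-firefly luciferase construct. Inhibition of Nrf2-driven transcription was scored by luminescence after 18-24 h of compound exposure at 37 °C.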
% is scaled to controls: 0 for no effect and ±100 for the full control effect; potency is read from the fitted curve at half-maximal effect.

Structure (SMILES) | activity change, negative = inhibition | Potency
NC(=O)C1=C[C@H](c2csc3ccccc23)C[C@H](OCc2ccc(CO)cc2)O1 | inactive: 21.7% | 
COc1ccc(C2c3ccc4ccccc4c3Oc3ncn(CCN4CCOCC4)c(=N)c32)cc1OC (stereo not drawn) | inactive: -0.509% | 
COc1ccc(CN(C)C(=O)CCC(=O)N2CCN(S(=O)(=O)c3ccc(Cl)cc3)CC2)c(OC)c1 |  | active: 11.6 µM
CC(=O)N1CCC[C@H]1C(=O)O | inactive: -8.87% | 
CC(=O)C[C@H](O)CC(=O)[C@H]1OC(=O)[C@@H](C)C/C=C\Cc2ccccc21 | inactive: 11.3% | 
CC1CCN(C(=O)CSc2nnc3c(n2)[nH]c2ccccc23)CC1 |  | active: 8.2 µM
N#Cc1ccccc1CSc1nc2ncc(Br)cc2[nH]1 | inactive: 12.7% | 
COCCNC(=O)Cn1ccc2cc(S(=O)(=O)N3CCCCCC3)ccc21 | inactive: -3.89% | 
COc1ccc(NC(=O)Cn2c(=O)n(CCC(=O)NCC3CCCO3)c(=O)c3cc(OC)c(OC)cc32)cc1 (stereo not drawn) | inactive: 0.0566% | 
CCOc1ccc(CNC(=O)C2CCCN(c3nnc(C)c4c(C)n(-c5ccccc5)nc34)C2)cc1 (stereo not drawn) | inactive: -21.1% | 
O=C(COc1ccccc1)Nc1nnc(S(=O)(=O)Nc2ccccc2)s1 | inactive: -16.8% | 
C[C@H]1c2cccc(O)c2C(O)=C2C(=O)C3(O)C(O)=C(C(N)=O)C(=O)[C@@H](N(C)C)[C@@H]3[C@@H](O)[C@@H]21 (stereo partly drawn) | inactive: -12.9% | 
CCc1nonc1NC(=O)c1oc2cc(C)c(C)cc2c1C | inactive: 2.77% | 
O=C(CNS(=O)(=O)c1cccs1)N1CCN(c2ccccc2F)CC1 | inactive: 12.3% [at 9.27 µM] | 
O=C(CCS(=O)(=O)c1cc2c(cc1Cl)NC(=O)CO2)NCc1ccccc1 | inactive: 1.79% | 
O=C(C[C@H]1C/C=C\CC[C@H](Cc2ccc(F)cc2)C(=O)OC[C@@H]2CCCN2C1=O)N[C@H](CO)Cc1ccccc1 | inactive: 6.22% | 
CN1CCN(CCCN2c3ccccc3Sc3ccc(Cl)cc32)CC1 |  | inactive and active: 8.2 µM
CCCN1/C(=C(\C#N)C2=NS(=O)(=O)c3ccccc32)N(C)c2ccccc21 | inactive: -0.921% | 
COc1cccc(C(=O)Nc2nnc(S(=O)(=O)N3CCOCC3)s2)c1 | inactive: 13.3% | 
Cc1ccc(-c2noc(C3CCN(S(=O)(=O)c4ccc5c(c4)OCCO5)CC3)n2)o1 |  | active: 6.51 µM

Structure (SMILES) | activity change, negative = inhibition | Potency
O=C(NCc1nc2ccccc2[nH]1)C1=C[C@H](c2ccc(C(F)(F)F)cc2)C[C@H](OCCCCO)O1 | inactive: 4.78% | 
Cc1ccc(NC(=O)CCS(=O)(=O)c2ccc3nc(C)sc3c2)cc1 | inactive: -5.93% | 
CN(C)CCNC(=O)c1cc2c(s1)-c1ccc(Cl)cc1SC2 |  | active: 5.8 µM
Cc1ccc(NC(=O)NC(C)c2c(-n3cccc3)sc(C)c2C)c(C)c1 (stereo not drawn) |  | active: 18.4 µM
Cc1cccc(C)c1-n1c(SCC(=O)N2CC(=O)Nc3ccccc32)nc2ccccc2c1=O |  | active: 23.1 µM
O=C(NCc1ccccc1)C1=C[C@@H](c2ccc3c(c2)OCO3)C[C@@H](OCc2ccc(CO)cc2)O1 | inactive: -7.71% | 
CCN(C(=O)c1cc(S(=O)(=O)N2CCCCC2)c[nH]1)c1ccc(OC)cc1 | inactive: -10.8% | 
COC(=O)c1cccc(S(=O)(=O)N2CCOCC2)c1 | inactive: -21.7% | 
Cc1nc(-c2ccc(NC(=O)c3ccco3)cc2)cs1 |  | active: 7.31 µM
C=CC[C@@H](CC(=O)N[C@@H](CO)Cc1ccccc1)C(=O)N[C@H](COC(=O)[C@@H](CC=C)Cc1ccc(F)cc1)Cc1ccccc1 | inactive: 7.92% | 
O=C(Cn1cccc1C(=O)c1ccccc1)NCc1ccc(Cl)cc1 | inactive: 4.08% | 
CCC(Oc1ccccc1)C(=O)Nc1nnc(S(=O)(=O)N2CCCC2)s1 (stereo not drawn) | inactive: 5.97% | 
OCC[C@H]1C[C@@H](O)[C@H](O)[C@@]2(Cc3ccccc3CO2)O1 | inactive: -4.36% | 
COc1cccc(NC(=O)CN2C(=O)COc3ccc(S(=O)(=O)N4CCOCC4)cc32)c1 | inactive: 0% | 
COc1ccc(S(=O)(=O)N2CCN(C(=O)c3cc(-c4ccc(Br)cc4)n[nH]3)CC2)cc1OC |  | active: 20.6 µM
Cc1ccc2nc(C(F)(F)F)c(C#N)c(N)c2c1 |  | active: 3.66 µM
Cc1cccc(C(=O)Nc2nnc(S(=O)(=O)N3CCOCC3)s2)c1 | inactive: 2.12% | 
COc1ccccc1CNS(=O)(=O)c1c(C)nc2sccn2c1=O | inactive: 7.73% | 
COc1cccc(CN(C)C(=O)c2cc(S(=O)(=O)N3CCN(c4ccccc4)CC3)ccc2Cl)c1 |  | active: 20.6 µM
CC(=O)C[C@@H](O)CC(=O)[C@@H]1OC(=O)[C@H](C)C/C=C\Cc2ccccc21 | inactive: 3.65% | 

Structure (SMILES) | activity change, negative = inhibition | Potency
Cn1nc(C(=O)N2CCN(S(=O)(=O)c3ccc(Cl)cc3)CC2)c2ccccc2c1=O |  | active: 23.1 µM
C[C@@H]1CC[C@]2(O[C@@H](CCO)C[C@H](O)[C@H]2O)O1 | inactive: 1.15% | 
COCCNC(=O)CCCN1C(=O)c2ccccc2Sc2ncccc21 | inactive: -9.18% | 
O=C(c1cccc(C(F)(F)F)c1)C1CCCN(Cc2cccc(OCCO)c2)C1 (stereo not drawn) | inactive: -6.07% | 
O=C(CCN1C(=O)/C(=C\c2ccccc2)SC1=S)NCCCN1CCOCC1 | inactive: 2.18% | 
Cc1ccc(-c2n[nH]c(=S)n2/N=C/C=C/c2ccccc2[N+](=O)[O-])cc1 | inactive: -18.3% | 
CCOc1cc(/C=C2\SC(=N)N(c3nccs3)C2=O)ccc1OCCN1CCOCC1 |  | active: 18.4 µM
COCCCNC(=O)CSc1c2c(nc3ccc(Cl)cc13)CCCC2 | inactive: -11.6% | 
COc1ccc(N2CCN(C(=O)c3ccc(CS(=O)(=O)c4ccc(Br)cc4)o3)CC2)cc1 | inactive: 4.22% | 
COc1cccc(-c2cc(C(=O)Nc3c(C)nn(Cc4ccccc4Cl)c3C)no2)c1 |  | active: 6.51 µM
CCc1nnc(NC(=O)c2nc(S(=O)(=O)Cc3ccc(C)cc3)ncc2Cl)s1 | inactive: 9.7% | 
CC(C)c1ccc(OCC(=O)NC(Cc2c[nH]c3ccccc23)C(=O)O)cc1 (stereo not drawn) | inactive: 5.56% | 
CC(=O)Nc1cc(OC(C)=O)c2nonc2c1OC(C)=O |  | active: 14.6 µM
CC(=O)N1CCOc2cc(S(=O)(=O)NC(C)c3ccccc3)c(Cl)cc21 (stereo not drawn) | inactive: -21.2% | 
Cc1cc(-c2ccc(C)c(S(=O)(=O)NCc3cccc(Br)c3)c2)on1 | inactive: -29.6% | 
C[C@@H]1CC[C@]2(O[C@H](CCO)C[C@H](O)[C@H]2O)O1 | inactive: 11% | 
CC[C@@H]1CCCCc2ccccc2[C@@H](C(=O)C[C@@H](O)CC(C)=O)OC1=O | inactive: 15.8% | 
C=CC[C@@H](CC(=O)N[C@@H](CO)Cc1ccccc1)C(=O)N[C@@H](COC(=O)[C@@H](CC=C)Cc1ccc(F)cc1)Cc1ccccc1 | inactive: -1.77% | 
